Where “and” joins values, the source holds several entries; their conditions need not be identical. Equal values may be shown once. Among all 360,000 compounds or so, about 16,000 (4.4%) were called active. The shares of active, inactive and inconclusive entries below differ from those in the screen. Calls follow the shape of the dose curve; as a rule, active = well fitted inhibition curve with a large enough effect; inconclusive = small, poorly fitted or top-dose-only effect; inactive = no such curve, though single readings can be large or run the other way. Where the call is inconclusive, the potency comes from a doubtful curve fit.
Target: Bromodomain adjacent to zinc finger domain protein 2B (Homo sapiens) (UniProt Q9UIF8)
Test: qHTS Assay for Inhibitors of BAZ2B; also: nearly all actives have a fitted effect of over 60% in size
Conditions: AlphaScreen BAZ2B-H3K14Ac peptide displacement; series mostly up to 114 µM
In short: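 AlphaScreen luminescence quantifies BAZ2B engagement of H3K14Ac peptide; the protein and biotinylated peptide are both at 50 nM final, buffer PBS pH 7.4 with 0.01% Tween-20, all steps at room temperature.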
Potency is read from the fitted curve at half-maximal effect; tags tell the direction and shape of the fitted curve.

UniProt Q9UIF8, sequence (Q9UIF8 whole entry, looked up, the tested form may be a part): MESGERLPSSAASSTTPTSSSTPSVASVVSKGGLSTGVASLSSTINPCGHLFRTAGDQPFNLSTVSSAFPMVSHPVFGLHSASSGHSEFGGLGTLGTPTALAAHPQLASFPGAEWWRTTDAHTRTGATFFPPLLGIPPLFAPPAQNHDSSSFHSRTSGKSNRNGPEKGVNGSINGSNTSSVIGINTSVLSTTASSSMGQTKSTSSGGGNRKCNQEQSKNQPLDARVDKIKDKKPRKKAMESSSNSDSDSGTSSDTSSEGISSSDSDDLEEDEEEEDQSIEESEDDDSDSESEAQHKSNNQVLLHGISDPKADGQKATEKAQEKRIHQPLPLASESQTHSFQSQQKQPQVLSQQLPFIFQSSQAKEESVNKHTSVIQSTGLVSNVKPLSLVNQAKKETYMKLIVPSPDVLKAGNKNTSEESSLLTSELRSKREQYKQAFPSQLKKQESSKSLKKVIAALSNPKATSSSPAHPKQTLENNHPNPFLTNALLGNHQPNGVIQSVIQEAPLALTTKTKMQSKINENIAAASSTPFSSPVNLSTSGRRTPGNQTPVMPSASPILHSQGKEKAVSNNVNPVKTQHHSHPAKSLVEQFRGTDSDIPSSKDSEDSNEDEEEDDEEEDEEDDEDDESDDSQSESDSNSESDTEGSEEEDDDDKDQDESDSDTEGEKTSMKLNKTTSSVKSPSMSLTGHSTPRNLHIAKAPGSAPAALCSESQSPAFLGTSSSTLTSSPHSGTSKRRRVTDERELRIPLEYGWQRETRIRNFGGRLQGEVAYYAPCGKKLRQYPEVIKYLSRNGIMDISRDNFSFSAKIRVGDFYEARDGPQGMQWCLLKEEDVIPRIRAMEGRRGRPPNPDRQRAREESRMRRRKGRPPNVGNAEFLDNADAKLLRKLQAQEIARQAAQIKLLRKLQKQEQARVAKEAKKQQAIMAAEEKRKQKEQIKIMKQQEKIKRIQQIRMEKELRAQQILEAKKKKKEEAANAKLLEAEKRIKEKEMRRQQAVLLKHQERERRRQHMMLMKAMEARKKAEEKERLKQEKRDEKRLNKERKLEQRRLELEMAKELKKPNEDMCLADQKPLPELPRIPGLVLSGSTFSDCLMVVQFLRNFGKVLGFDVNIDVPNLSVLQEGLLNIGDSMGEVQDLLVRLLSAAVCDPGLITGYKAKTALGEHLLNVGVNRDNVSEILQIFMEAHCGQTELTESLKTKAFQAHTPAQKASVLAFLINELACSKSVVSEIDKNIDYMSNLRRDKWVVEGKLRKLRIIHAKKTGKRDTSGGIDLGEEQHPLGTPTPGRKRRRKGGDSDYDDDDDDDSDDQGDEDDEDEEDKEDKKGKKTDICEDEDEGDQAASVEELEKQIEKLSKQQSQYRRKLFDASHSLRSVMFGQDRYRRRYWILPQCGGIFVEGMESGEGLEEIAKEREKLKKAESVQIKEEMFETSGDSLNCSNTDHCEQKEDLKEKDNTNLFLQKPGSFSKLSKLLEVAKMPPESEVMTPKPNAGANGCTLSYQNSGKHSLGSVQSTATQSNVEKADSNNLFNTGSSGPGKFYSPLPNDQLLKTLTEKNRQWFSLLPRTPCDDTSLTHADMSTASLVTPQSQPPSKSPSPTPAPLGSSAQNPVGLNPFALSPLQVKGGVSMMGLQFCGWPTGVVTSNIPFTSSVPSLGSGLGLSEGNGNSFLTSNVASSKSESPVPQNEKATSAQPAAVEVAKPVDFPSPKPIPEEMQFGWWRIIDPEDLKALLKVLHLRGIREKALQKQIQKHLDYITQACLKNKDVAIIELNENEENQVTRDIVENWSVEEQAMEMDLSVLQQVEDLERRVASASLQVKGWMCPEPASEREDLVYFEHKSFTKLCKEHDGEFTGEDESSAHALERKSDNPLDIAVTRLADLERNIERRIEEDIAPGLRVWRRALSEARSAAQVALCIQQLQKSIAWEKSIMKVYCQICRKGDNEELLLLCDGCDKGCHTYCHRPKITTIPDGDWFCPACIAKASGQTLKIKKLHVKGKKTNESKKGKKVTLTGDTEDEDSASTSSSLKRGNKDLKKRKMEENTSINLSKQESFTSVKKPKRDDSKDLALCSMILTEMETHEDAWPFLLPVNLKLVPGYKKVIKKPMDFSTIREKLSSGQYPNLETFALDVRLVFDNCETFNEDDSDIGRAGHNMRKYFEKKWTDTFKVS

SMILES	Potency
O=C1c2cccnc2C(=O)N1CO	inconclusive: 89.1 µM [inhibitor, single point]
CCN1CCN(c2ncnc3c2c(-c2ccccc2)cn3-c2ccc(F)cc2)CC1	inconclusive: 39.8 µM [inhibitor, partial curve]
COc1ccc(NC(=O)Cn2c(C(C)C)nc(C)cc2=O)cc1Cl	inconclusive: 3.55 µM [inhibitor, single point]
CCN1C(C(=O)c2ccccc2)=C(OC(=O)c2ccc(OC)cc2)c2ccccc2S1(=O)=O	inactive
NCCc1cnc[nH]1	inconclusive: 89.1 µM [inhibitor, single point] and inconclusive: 79.4 µM [inhibitor, single point]
COc1ccc(OC)c(NC(=O)CSc2nnc3ccc(-c4ccccn4)nn23)c1	inconclusive: 89.1 µM [inhibitor, single point]
CCC(c1nnnn1Cc1ccc2c(c1)OCO2)N1CCN(c2ccccc2)CC1 (stereo not drawn)	inconclusive: 89.1 µM [inhibitor, single point]
COc1cccc(OC)c1C(=O)N1CCN(Cc2cccnc2)CC1	active: 50.1 µM
O=C(c1ccc(S(=O)(=O)c2cccc(Cl)c2)c([N+](=O)[O-])c1)N1CCN(Cc2ccccc2)CC1	inconclusive: 31.6 µM [inhibitor, full curve, poor fit]
Cc1ccccc1C(=O)Nc1nc2nc(-c3ccccc3)cc(=O)n2[nH]1	inconclusive: 79.4 µM [inhibitor, single point]
COc1cccc(C(=O)NCCN2C(=O)S/C(=C/c3cccs3)C2=O)c1OC	inconclusive: 70.8 µM [inhibitor, partial curve]
Cn1c(=O)n(C)c2cc(NC(=O)CCl)ccc21	inconclusive: 89.1 µM [inhibitor, single point]
N#C/C(=C\c1cccnc1)c1nc2c(s1)CCCC2	inactive
COc1cccc(C2c3[nH]c4ccccc4c3C[C@H]3C(=O)N(c4ccccc4C(=O)NCCCN4CCOCC4)C(=O)N23)c1 (stereo partly drawn)	inconclusive: 70.8 µM [inhibitor, single point]
Cc1ccc(C(C)C)c(OCC(=O)Nc2ccccc2N2CCN(C)CC2)c1	inconclusive: 39.8 µM [inhibitor, partial curve]
CCOc1ccc(-c2cc(C(=O)N3CCCC3)c3ccccc3n2)cc1	inactive
O=c1oc2ccccc2nc1/C=C(O)/C=C/c1ccc(F)cc1	active: 50.1 µM
COc1ccc(C2C(C(C)=O)=C(O)C(=O)N2CCCn2ccnc2)cc1OC (stereo not drawn)	inconclusive: 89.1 µM [inhibitor, single point]
